PubChem BioAssay AID1476 (National Center for Advancing Translational Sciences (NCATS), 2009)
Out of some 200,000 compounds screened, about 4,500 (2.2%) were called active. The inconclusive results got no clear call from the source; some entries with a clear call stand among them for comparison. Calls come from the whole dose curve; as a rule, active = well fitted inhibition curve with a large enough effect; inconclusive = small, poorly fitted or top-dose-only effect, or effect the other way; inactive = flat fitted curve, though single readings scatter. Potencies beside an inconclusive call are fits to weak or partial responses and may not hold up.

target: Cruzipain (Trypanosoma cruzi) (UniProt P25779); experiment: qHTS Assay for Promiscuous and Specific Inhibitors of Cruzain (without detergent); details: purified cruzain, Z-FR-AMC fluorescence, no detergent; note: nearly all actives have a fitted effect of over 40% in size;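 for max response, negative = inhibition: plate controls were enzyme without inhibitor for no effect and buffer without enzyme for full effect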
Procedure, shortened: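 Purified cruzain at 1.5 nM, pre-incubated 15 min with compound at room temperature in 100 mM sodium acetate pH 5.5, 5 mM DTT, 0.00005% Triton X-100. Reaction started with 2 uM Z-FR-AMC; AMC fluorescence increase over 60 s gives rate.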
Potency is the fitted concentration of half-maximal effect; tags give direction and shape of the fitted curve.

Sequence of UniProt P25779 (P25779 whole entry, looked up): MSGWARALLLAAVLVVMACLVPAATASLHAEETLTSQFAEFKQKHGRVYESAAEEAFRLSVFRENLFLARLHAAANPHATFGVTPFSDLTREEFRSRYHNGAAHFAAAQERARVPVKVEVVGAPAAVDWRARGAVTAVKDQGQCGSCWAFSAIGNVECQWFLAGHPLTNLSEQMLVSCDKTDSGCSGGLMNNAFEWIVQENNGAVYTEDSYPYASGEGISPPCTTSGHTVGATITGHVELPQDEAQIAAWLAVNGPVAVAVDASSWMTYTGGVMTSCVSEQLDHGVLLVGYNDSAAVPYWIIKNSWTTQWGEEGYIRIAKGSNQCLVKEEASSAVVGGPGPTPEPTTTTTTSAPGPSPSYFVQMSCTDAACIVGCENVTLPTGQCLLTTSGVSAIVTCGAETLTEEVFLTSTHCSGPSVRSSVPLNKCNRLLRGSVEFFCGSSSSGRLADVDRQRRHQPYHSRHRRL

SMILES	max response, negative = inhibition	Potency
Cc1cccc(N2C(=O)C(CC(=O)Nc3ccc(F)cc3)N(C3CCCC3)C2=O)c1 (stereo not drawn)	inactive: 9.1%	
O=C(Oc1ccc(N(Cc2cccs2)C2=NS(=O)(=O)c3ccccc32)cc1)c1ccc(Cl)cc1		active: 31.6 µM
CCn1cc(C(=O)NCc2ccco2)c(=O)c2cc(S(=O)(=O)N3CCCCCC3)ccc21		inconclusive: 39.8 µM [activator, single point]
O=C(O)c1cc(N/N=C/c2ccc3c(c2)OCCO3)ccc1Cl	inactive: -1.13%	
Cc1nn(Cc2ccc(Cl)cc2)c(C)c1NC(=O)CCCn1nc([N+](=O)[O-])c(Cl)c1C	inconclusive: 74.5% [activator]	
COc1ccc(C2=C(C)C(=O)N(Cc3ccc(C(=O)Nc4ccc(F)cc4C)cc3)S2(=O)=O)cc1		inconclusive: 39.8 µM [inhibitor, single point]
CSCC[C@H](C=O)NC(=O)[C@H](CC(C)C)NC(=O)[C@H](CC(C)C)NC(C)=O		active: 0.0025 µM
COc1cc(C2CC(=O)N(CC(=O)NCc3ccco3)c3ccccc3S2)cc(OC)c1OC (stereo not drawn)		inconclusive: 31.6 µM [activator, single point]
Cc1cccc(-c2nc(CS(=O)CC(=O)NCc3ccc(Cl)cc3)c(C)o2)c1 (stereo not drawn)		inconclusive: 39.8 µM [activator, single point]
Clc1ccccc1-c1nnc2sc(-c3cccs3)nn12		inconclusive: 39.8 µM [inhibitor, single point]
O=C(COc1ccc(C(F)(F)F)cc1[N+](=O)[O-])Nc1cccc(C(F)(F)F)c1		inconclusive: 39.8 µM [inhibitor, single point]
COc1ccc(-c2c[n+]3c4n2CCCCC4=C(c2ccc(Br)cc2)C3)cc1		active: 10 µM
COc1cccc2c1C(=O)CC2NC(=O)C(F)(F)F (stereo not drawn)	inactive: 6.81%	
NC(=O)C1CC(=O)N(Cc2ccc3c(c2)OCO3)C(=Nc2ccccc2)S1 (stereo not drawn)		inconclusive: 25.1 µM [activator, single point]
Cc1cc(C)cc(N(C(=O)CNC(=O)c2cccs2)C(C(=O)NC2CCCC2)c2cccnc2)c1 (stereo not drawn)	inactive: -3.83%	
COC(=O)c1c(-c2cccc3ccccc23)csc1NC(=O)Cc1ccc(OC)c(OC)c1		inconclusive: 31.6 µM [inhibitor, single point]
COc1cc(CSc2ncc(CO)n2Cc2ccc(C)cc2)cc(OC)c1	inactive: 10.8%	
COC(=O)c1ccc(C(NC(=O)OCc2ccccc2)/C(C)=C/[C@@H](C)C(=O)NCc2cc(F)cc(F)c2)cc1 (stereo partly drawn)	inactive: 1.96%	
